Patent US20240279191A1, “SMALL MOLECULE INHIBITORS OF TEAD-YAP” (The General Hospital Corporation, priority 2021, published 2024)
pIC50: −log10 of the molar value.

System: MSTO-211H cells
Assay: Cell proliferation assay (MTT), MSTO-211H
Details: Homo sapiens, read-out: IC50 MSTO-211H cell proliferation

O=C(Nc1ccccc1)N1CCN(C(=O)c2cccc(OCCC3CCCCC3)c2)CC1 [TM2, 4-(3-(2-cyclohexylethoxy)benzoyl)-N-phenylpiperazine-1-carboxamide]
pIC50: 7.03
